Test results taken from the supplement of paper PMC8728848.
This is one part of the list.

Assays:
Assay in all cases: glycan array binding signal (z-score within array); higher = stronger binding
Details in all cases: glycan notation: IUPAC condensed, linker removed
[1] = target: GlcNAc(b1-4)GlcNAc(b1-4)GlcNAc(b1-4)GlcNAc(b1-4)GlcNAc
How it was run: (§1)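 The binding signal is a Z-score computed within each array and averaged over linkers. Arrays of the same protein sequence at different concentrations or buffers were also averaged together. Data originate from 3228 arrays in the Consortium for Functional Glycomics database, kept only where the protein sequence was available.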

[2] = target: GlcNAc(b1-4)GlcNAc(b1-4)GlcNAc(b1-4)GlcNAc(b1-4)GlcNAc(b1-4)GlcNAc
How it was run: as §1

[3] = target: GlcNAc(b1-4)[GlcNAc(b1-6)]GalNAc
How it was run: as §1

[4] = target: GlcNAc(b1-6)Gal(b1-4)GlcNAc
How it was run: as §1

GlcNAc(b1-6)GalNAc = target: GlcNAc(b1-6)GalNAc
How it was run: as §1

[5] = target: GlcNAc6S(b1-3)Gal(b1-4)GlcNAc
How it was run: as §1

Kdn(a2-3)Gal(b1-3)GalNAc = target: Kdn(a2-3)Gal(b1-3)GalNAc
How it was run: as §1

Kdn(a2-3)Gal(b1-3)GlcNAc = target: Kdn(a2-3)Gal(b1-3)GlcNAc
How it was run: as §1

Kdn(a2-3)Gal(b1-4)Glc = target: Kdn(a2-3)Gal(b1-4)Glc
How it was run: as §1

Kdn(a2-3)Gal(b1-4)GlcNAc = target: Kdn(a2-3)Gal(b1-4)GlcNAc
How it was run: as §1

[6] = target: Kdn(a2-3)Gal(b1-4)[Fuc(a1-3)]GlcNAc
How it was run: as §1

Kdn(a2-6)Gal(b1-4)GlcNAc = target: Kdn(a2-6)Gal(b1-4)GlcNAc
How it was run: as §1

[7] = target: Man(a1-2)Man(a1-2)Man(a1-3)Man
How it was run: as §1

[8] = target: Man(a1-2)Man(a1-2)Man(a1-6)[Man(a1-3)]Man
How it was run: as §1

Man(a1-2)Man(a1-3)Man = target: Man(a1-2)Man(a1-3)Man
How it was run: as §1

[9] = target: Man(a1-2)Man(a1-3)[Man(a1-2)Man(a1-6)]Man
How it was run: as §1

[10] = target: Man(a1-2)Man(a1-3)[Man(a1-2)Man(a1-6)]Man(a1-6)[Man(a1-2)Man(a1-2)Man(a1-3)]Man
How it was run: as §1

[11] = target: Man(a1-2)Man(a1-3)[Man(a1-2)Man(a1-6)]Man(a1-6)[Man(a1-2)Man(a1-2)Man(a1-3)]Man(b1-4)GlcNAc(b1-4)GlcNAc
How it was run: as §1

[12] = target: Man(a1-2)Man(a1-3)[Man(a1-6)]Man(a1-6)[Man(a1-2)Man(a1-3)]Man(b1-4)GlcNAc(b1-4)GlcNAc
How it was run: as §1

[13] = target: Man(a1-2)Man(a1-6)[Man(a1-3)]Man(a1-6)[Man(a1-2)Man(a1-2)Man(a1-3)]Man
How it was run: as §1

[14] = target: Man(a1-2)Man(a1-6)[Man(a1-3)]Man(a1-6)[Man(a1-2)Man(a1-2)Man(a1-3)]Man(b1-4)GlcNAc(b1-4)GlcNAc
How it was run: as §1

Man(a1-3)[Man(a1-6)]Man = target: Man(a1-3)[Man(a1-6)]Man
How it was run: as §1

[15] = target: Man(a1-3)[Man(a1-6)]Man(a1-6)[Man(a1-2)Man(a1-3)]Man(b1-4)GlcNAc(b1-4)GlcNAc
How it was run: as §1

[16] = target: Man(a1-3)[Man(a1-6)]Man(a1-6)[Man(a1-3)]Man
How it was run: as §1

[17] = target: Man(a1-3)[Man(a1-6)]Man(a1-6)[Man(a1-3)]Man(b1-4)GlcNAc(b1-4)GlcNAc
How it was run: as §1

[18] = target: Man(a1-3)[Man(a1-6)]Man(b1-4)GlcNAc(b1-4)GlcNAc
How it was run: as §1

[19] = target: Man(a1-3)[Man(a1-6)]Man(b1-4)GlcNAc(b1-4)[Fuc(a1-6)]GlcNAc
How it was run: as §1

Man(a1-6)Man = target: Man(a1-6)Man
How it was run: as §1

Man(b1-4)GlcNAc = target: Man(b1-4)GlcNAc
How it was run: as §1

MurNAc(b1-4)GlcNAc = target: MurNAc(b1-4)GlcNAc
How it was run: as §1

Neu5Ac(a2-3)Gal = target: Neu5Ac(a2-3)Gal
How it was run: as §1

[20] = target: Neu5Ac(a2-3)Gal(b1-3)GalNAc
How it was run: as §1

[21] = target: Neu5Ac(a2-3)Gal(b1-3)GalNAc(b1-3)Gal(a1-4)Gal(b1-4)Glc
How it was run: as §1

[22] = target: Neu5Ac(a2-3)Gal(b1-3)GalNAc(b1-4)[Neu5Ac(a2-3)]Gal(b1-4)Glc
How it was run: as §1

[23] = target: Neu5Ac(a2-3)Gal(b1-3)GalNAc(b1-4)[Neu5Ac(a2-8)Neu5Ac(a2-3)]Gal(b1-4)Glc
How it was run: as §1

[24] = target: Neu5Ac(a2-3)Gal(b1-3)GalNAc6S
How it was run: as §1

[25] = target: Neu5Ac(a2-3)Gal(b1-3)GlcNAc
How it was run: as §1

B1: AT1G73650(15) (Arabidopsis thaliana), F4HRY1 (protein)
chain: MGTVLDSHFLALTAIVTVIYQFIFFVITALFKFDQVTDFAGSTNFVILAVLTLVLKASWHFRQIVLTLLVVVWGLRLGIFLLMETRILQWGEDRRFDEQRGNIVRLIIFWTLQAVWVWTVSLPLTLVNASDGGGSLKPADVIGWTMETWVFGFLIEAAADQQKLSFKNSPENRGKWCDVGVWKYSRHPNYFGEMETLLWWGIFVAASPVLEGAEYLVIFGPLFLTLLLLFVSGIPLLEASADKKHGNSGAYRSYKKTTSPLILFPRGVYGNLPGWFKTVFLFEFPFYSRNLPQEGRLQNSKEKEVKDD
B1 was tested, and the “glycan array binding signal (z-score)” value [1] was -0.002, the “glycan array binding signal (z-score)” value [2] was -0.502 and the “glycan array binding signal (z-score)” value [3] was -0.41. The “glycan array binding signal (z-score)” value [4] was -0.271, the “glycan array binding signal (z-score)” value (GlcNAc(b1-6)GalNAc) was -0.154 and the “glycan array binding signal (z-score)” value [5] was -0.641. The “glycan array binding signal (z-score)” value (Kdn(a2-3)Gal(b1-3)GalNAc) was -0.526, the “glycan array binding signal (z-score)” value (Kdn(a2-3)Gal(b1-3)GlcNAc) was 0.749 and the “glycan array binding signal (z-score)” value (Kdn(a2-3)Gal(b1-4)Glc) was 1.87. For the same binder, the “glycan array binding signal (z-score)” value (Kdn(a2-3)Gal(b1-4)GlcNAc) was -0.042, the “glycan array binding signal (z-score)” value [6] was 0.199 and the “glycan array binding signal (z-score)” value (Kdn(a2-6)Gal(b1-4)GlcNAc) was 0.313. The “glycan array binding signal (z-score)” value [7] was -0.298, the “glycan array binding signal (z-score)” value [8] was -0.361 and the “glycan array binding signal (z-score)” value (Man(a1-2)Man(a1-3)Man) was -0.334. The “glycan array binding signal (z-score)” value [9] was -0.516, the “glycan array binding signal (z-score)” value [10] was -0.275 and the “glycan array binding signal (z-score)” value [11] was -0.226. For the same binder, the “glycan array binding signal (z-score)” value [12] was -0.523, the “glycan array binding signal (z-score)” value [13] was -0.508 and the “glycan array binding signal (z-score)” value [14] was -0.132. The “glycan array binding signal (z-score)” value (Man(a1-3)[Man(a1-6)]Man) was 0.955, the “glycan array binding signal (z-score)” value [15] was -0.571 and the “glycan array binding signal (z-score)” value [16] was 1.28. The “glycan array binding signal (z-score)” value [17] was -0.566, the “glycan array binding signal (z-score)” value [18] was 0.138 and the “glycan array binding signal (z-score)” value [19] was -0.199. The “glycan array binding signal (z-score)” value (Man(a1-6)Man) was -0.354, the “glycan array binding signal (z-score)” value (Man(b1-4)GlcNAc) was -0.703 and the “glycan array binding signal (z-score)” value (MurNAc(b1-4)GlcNAc) was -0.639. The “glycan array binding signal (z-score)” value (Neu5Ac(a2-3)Gal) was -0.693, the “glycan array binding signal (z-score)” value [20] was 0.046 and the “glycan array binding signal (z-score)” value [21] was -0.349. The “glycan array binding signal (z-score)” value [22] was -0.634, the “glycan array binding signal (z-score)” value [23] was -0.468 and the “glycan array binding signal (z-score)” value [24] was -0.328. The “glycan array binding signal (z-score)” value [25] was -0.508.
